According to PubChem BioAssay AID588855 (National Center for Advancing Translational Sciences (NCATS), 2011):
“And” between values parts separate entries of the source, which are not always exact repeats. Identical values can stand only once. About 5,000 (1.2%) of roughly 410,000 compounds were called active. Inconclusive means that the source gave no clear call. Such entries were picked first, then a sample of the others. Calls come from the whole dose curve; as a rule, active = well fitted inhibition curve with a large enough effect; inconclusive = small, poorly fitted or top-dose-only effect; inactive = no such curve, though single readings can be large or run the other way. A potency beside an inconclusive call is a rough fit, not a confirmed value.

assay: qHTS for Inhibitors of TGF-b; details: HepG2 CAGA-GFP TGF-b/SMAD3 reporter, GFP fluorescence, 18 h, TGF-beta stimulated, 500 pg/mL final; series mostly up to 46.1 µM; activity, negative = inhibition: at the top concentration; note: nearly all actives have a fitted effect of over 65% in size
How it was run: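 Smad-responsive CAGA-GFP expression was quantified in HEPG2 cells exposed to compounds and 500 pg/mL final TGF-beta for 18 h at 37 degrees C; unstimulated wells defined full inhibition.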
% is set by controls: 0 for no effect and ±100 for the full control effect; potency is the fitted concentration of half-maximal effect; tags give direction and shape of the fitted curve.

SMILES	Potency	activity, negative = inhibition
COc1cc(/C=C2/N=C(C3CCCCC3)OC2=O)cc(OC)c1OC	inconclusive: 35.5 µM [inhibitor, single point]	
O=C(Nc1cccc(OC(F)(F)F)c1)C1Cc2c(-c3ccccc3Oc3ccccc3)ccnc2O1 (stereo not drawn)	active: 11.2 µM	
Nc1nc(SCCO)[nH]c(=O)c1NC(=O)c1ccccc1F	inconclusive: 4.47 µM [inhibitor, single point]	
Cc1ncc(CN2CCCC(C(=O)Nc3ccc(-c4cccc(F)c4)cc3)C2)s1 (stereo not drawn)	inconclusive: 3.55 µM [inhibitor, full curve, poor fit]	
CCCc1nn2c(=O)cc(COC(=O)c3ccc(NC(=O)C4CCCCC4)cc3)nc2s1		inactive: 5.46%
Cn1nc(C(C)(C)C)cc1NC(=O)C1(C)CCN1C(=O)Cc1ccc(-c2ccccc2)cc1 (stereo not drawn)	inconclusive: 35.5 µM [inhibitor, single point]	
O=C(Nc1ncnc2sc3c(c12)CCCCC3)c1ccc(F)cc1	inconclusive: 25.1 µM [inhibitor, single point]	
CCOc1cc2c(cc1C(C)(C)C)NC(=O)CS2	inconclusive: 1.41 µM [inhibitor, full curve, poor fit]	
Cc1cc(/C=N\NC(=O)COc2cccc3cccnc23)c(C)n1-c1ccccc1	inconclusive: 22.4 µM [inhibitor, single point]	
Cc1cc(OCC(O)CN2CCN(c3cccc(Cl)c3)CC2)ccc1Cl (stereo not drawn)	inconclusive: 31.6 µM [inhibitor, single point]	
O=C(N/N=C/c1ccccc1O)c1cccc2ccccc12	active: 8.91 µM	
COc1ccc(C(=O)N2CCc3cc4c(cc3C2C)OCCCO4)cc1 (stereo not drawn)	inconclusive: 7.08 µM [inhibitor, partial curve, poor fit]	
COc1ccc(OC)c(CNC(=O)C2CCCCN2S(=O)(=O)c2ccc(F)cc2)c1 (stereo not drawn)	active: 7.94 µM	
COc1ccc(-c2nc(Cn3c(SCc4cccc(C(F)(F)F)c4)nc4cccnc43)c(C)o2)cc1OC	inconclusive: 35.5 µM [inhibitor, single point]	
Cc1ccccc1NC(=O)c1ccc(-c2ccc(Cl)cc2Cl)o1	inconclusive: 10 µM [inhibitor, partial curve, poor fit]	
CC(NC(=S)Nc1cccc(C(F)(F)F)c1)C(C)(C)C (stereo not drawn)	inconclusive: 25.1 µM [inhibitor, single point]	
Cc1oc2ncn(C)c(=O)c2c1C(=O)NCc1ccc(Cl)cc1		inactive: 9.72%
CCOc1ccccc1NC(=O)Nc1cccc(S(N)(=O)=O)c1		inactive: -13.2%
Cc1cccc(Cn2cc(C(=O)Nc3cc(F)ccc3F)ccc2=O)c1		inactive: -7.37%
O=C(NC1=NCCS1)C1CCN(S(=O)(=O)c2cc([N+](=O)[O-])ccc2Cl)CC1	inconclusive: 12.6 µM [inhibitor, partial curve, poor fit]	
COc1ccc(C(CCN2CCCC(C)C2)c2c(OC)cc(OC)c3c2OC(=O)CC3c2cc(OC)c(OC)c(OC)c2)cc1 (stereo not drawn)	inconclusive: 11.2 µM [inhibitor, single point]	

SMILES	Potency	activity, negative = inhibition
Fc1ccc(NC(=S)Nc2ccc3nccnc3c2)cc1		inactive: -2.43%
O=C(Nc1ccc(Cl)c([N+](=O)[O-])c1)c1ccncc1	inconclusive: 2.82 µM [inhibitor, full curve, poor fit]	
CC(C)C[C@H](NC(=O)c1nc[nH]c1C(=O)NCC(=O)OC(C)(C)C)C(=O)OC(C)(C)C	inconclusive: 20 µM [inhibitor, partial curve, poor fit]	
COc1ccc(-c2ccc(CCC(=O)O)n2-c2ccccc2O)cc1	inconclusive: 35.5 µM [inhibitor, single point] and inconclusive: 31.6 µM [inhibitor, single point]	
CCOc1ccc(C(=O)NCCN2CCOCC2)cc1	inconclusive: 5.62 µM [inhibitor, partial curve, poor fit]	
CCOc1cc([C@H]2[C@@H]3CCCC[C@]3(O)CCN2CC(=O)NCc2ccco2)ccc1O	inconclusive: 2.82 µM [inhibitor, full curve]	
COc1ccc(S(=O)(=O)Nc2cc3c(C(=O)OC(C)C)c(C)oc3c3ccccc23)cc1	inconclusive: 35.5 µM [inhibitor, single point]	
COc1ccc(CNC(=O)CN2C(=O)CCn3nc(-c4ccccc4)cc32)c(OC)c1	inconclusive: 5.01 µM [inhibitor, single point]	
O=C(Nc1ccc(Cl)c(-c2nc3ccccc3[nH]2)c1)c1cccnc1	inconclusive: 35.5 µM [inhibitor, single point]	
CCOc1ccc(NC(=O)COc2ccc(C(=O)NCc3cccc(OC)c3)cc2OC)cc1	inconclusive: 7.94 µM [inhibitor, partial curve, poor fit]	
CCn1nc(C)c2c(-c3ccccc3)cc(=O)n(C(C)C(=O)NCCc3ccc(OC)c(OC)c3)c21 (stereo not drawn)		inactive: -32.7%
O=S(=O)(c1ccc(Cl)c(NC(=S)Nc2ccccc2N2CCOCC2)c1)N1CCOCC1		inactive: -7.39%
COc1ccc(CN2CCC(CO)(Cc3ccccc3C(F)(F)F)CC2)c(F)c1	inconclusive: 22.4 µM [inhibitor, single point]	
COc1ccc(S(=O)(=O)N(CC(=O)Nc2cc(Cl)ccc2C)Cc2ccccc2)cc1OC	inconclusive: 35.5 µM [inhibitor, single point]	
O=C(c1ccc([N+](=O)[O-])s1)N1CCc2ccccc2C1	inconclusive: 8.91 µM [inhibitor, partial curve]	
O=S(=O)(c1ccc2ccccc2c1)N1CCc2ccccc21	inconclusive: 35.5 µM [inhibitor, single point]	
CCOC(=O)c1cc(-c2ccc(F)cc2)n(CCC(=O)Nc2nc3ccc(OC)cc3s2)c1C	inconclusive: 3.98 µM [inhibitor, full curve, poor fit]	
COc1ccc(CN(C)CC(O)COC(c2ccccc2)c2ccccc2)c(OC)c1OC (stereo not drawn)	inconclusive: 35.5 µM [inhibitor, single point]	
CCNC(=O)CSc1nnc(-c2ccccc2)n1-c1ccc(OCC)cc1		inactive: -1.91%
CCCCn1c(N)c(N(CC(C)C)C(=O)C2=NN(c3cc(C)ccc3C)C(=O)CC2)c(=O)[nH]c1=O	inconclusive: 5.62 µM [inhibitor, single point]	
O=C(NC1=NCCCCC1)c1cccc2ccccc12		inactive: 24.5%

SMILES	Potency	activity, negative = inhibition
CCOC(=S)SCc1cn2ccc(C)cc2n1	inconclusive: 12.6 µM [inhibitor, single point]	
COc1ccc(-c2nn(-c3ccccc3)cc2C2NC(=O)NC(C)=C2C(=O)OC(C)C)cc1Cl (stereo not drawn)	inconclusive: 22.4 µM [inhibitor, single point]	
O=C(c1ccco1)N(CCCN1CCOCC1)c1nc(-c2ccc(Cl)cc2)cs1		inactive: -5.36%
CCc1nc2c(OCc3cccc(Cl)c3)cccn2c1N(C)C(=O)c1ccc(OC)cc1	inconclusive: 35.5 µM [inhibitor, single point]	
COc1ccccc1Cc1c(-c2ccc(C)cc2)nc2ccc(Br)cn12	inconclusive: 35.5 µM [inhibitor, single point]	
CCC(C)NS(=O)(=O)c1ccc(NC(=O)c2c(-c3ccccc3)noc2C)cc1 (stereo not drawn)	inconclusive: 15.8 µM [inhibitor, single point]	
CCCC(=O)NC(=S)Nc1ccc(N2CCOCC2)c(Cl)c1	inconclusive: 15.8 µM [inhibitor, single point]	
CCOC(=O)c1c(C)[nH]c(N=Nc2ccccc2Cl)c1C	inconclusive: 35.5 µM [inhibitor, single point]	
COc1ccc(C(=O)NC(=S)NC(C)(C)C)cc1Br	inconclusive: 14.1 µM [inhibitor, single point]	
CN1CCN(C(=O)c2ccc(Cl)cc2)CC1	inconclusive: 6.31 µM [inhibitor, single point]	
Cc1ccc(N2CCN(C(=O)N3CCCC3)CC2)cc1Cl	inconclusive: 1.41 µM [inhibitor, partial curve, poor fit]	
CCC(=O)Nc1cccc(C(=O)/C=C/c2cccs2)c1	inconclusive: 14.1 µM [inhibitor, partial curve, poor fit]	
COCCN1C(=O)CS/C1=C(/C#N)C(=O)NCc1ccco1		inactive: 15.1%
COc1ccc(N/C=C(\C#N)S(=O)(=O)c2ccc(OC)cc2)cc1	inconclusive: 0.891 µM [inhibitor, partial curve]	
O=C(CNC(=O)N1CC(=O)Nc2ccccc21)NCc1ccc(F)cc1	inconclusive: 5.62 µM [inhibitor, single point]	
N#Cc1c(-c2ccccc2Cl)cc(-c2ccccc2)nc1Br	inconclusive: 15.8 µM [inhibitor, single point]	
COc1ccc2[nH]cc(/C=C/C(=O)c3ccccc3)c2c1	inconclusive: 35.5 µM [inhibitor, single point]	
COc1ccccc1OCc1nc(C#N)c(NCc2ccc(C)cc2)o1	inconclusive: 7.94 µM [inhibitor, partial curve, poor fit]	
C1=C/C(=C2/C=Cc3ccccc32)c2ccccc2N1	inconclusive: 35.5 µM [inhibitor, single point]	
CC(=NNC(=S)Nc1ccc(C)cc1)c1ccccn1	inconclusive: 0.398 µM [inhibitor, full curve, poor fit]	
CC(C)C(C(=O)NCC1CCCO1)N(Cc1ccco1)C(=O)CNS(=O)(=O)c1ccccc1 (stereo not drawn)	inconclusive: 5.01 µM [inhibitor, partial curve, poor fit]	
